In the supplement of paper PMC8728848:
The list shows a part of the results.

Key:
Assay in all cases: glycan array binding signal (z-score within array); higher = stronger binding
Conditions in all cases: glycan notation: IUPAC condensed, linker removed
[1] = molecular target: Fuc(a1-2)[GalNAc(a1-3)]Gal(b1-3)GlcNAc(b1-6)GalNAc
In short: (§1)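 The binding signal is a Z-score computed within each array and averaged over linkers. Arrays of the same protein sequence at different concentrations or buffers were also averaged together. Data originate from 3228 arrays in the Consortium for Functional Glycomics database, kept only where the protein sequence was available.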

[2] = molecular target: Fuc(a1-2)[GalNAc(a1-3)]Gal(b1-4)Glc
In short: as §1

[3] = molecular target: Fuc(a1-2)[GalNAc(a1-3)]Gal(b1-4)GlcNAc
In short: as §1

[4] = molecular target: Fuc(a1-2)[GalNAc(a1-3)]Gal(b1-4)GlcNAc(b1-2)Man
In short: as §1

[5] = molecular target: Fuc(a1-2)[GalNAc(a1-3)]Gal(b1-4)GlcNAc(b1-2)Man(a1-3)[Fuc(a1-2)[GalNAc(a1-3)]Gal(b1-4)GlcNAc(b1-2)Man(a1-6)]Man(b1-4)GlcNAc(b1-4)GlcNAc
In short: as §1

[6] = molecular target: Fuc(a1-2)[GalNAc(a1-3)]Gal(b1-4)GlcNAc(b1-2)Man(a1-3)[Fuc(a1-2)[GalNAc(a1-3)]Gal(b1-4)GlcNAc(b1-2)Man(a1-6)]Man(b1-4)GlcNAc(b1-4)[Fuc(a1-6)]GlcNAc
In short: as §1

[7] = molecular target: Fuc(a1-2)[GalNAc(a1-3)]Gal(b1-4)GlcNAc(b1-3)Gal(b1-4)GlcNAc
In short: as §1

[8] = molecular target: Fuc(a1-2)[GalNAc(a1-3)]Gal(b1-4)GlcNAc(b1-3)Gal(b1-4)GlcNAc(b1-3)Gal(b1-4)GlcNAc
In short: as §1

[9] = molecular target: Fuc(a1-2)[GalNAc(a1-3)]Gal(b1-4)GlcNAc(b1-3)GalNAc
In short: as §1

[10] = molecular target: Fuc(a1-2)[GalNAc(a1-3)]Gal(b1-4)GlcNAc(b1-3)[Fuc(a1-2)[GalNAc(a1-3)]Gal(b1-4)GlcNAc(b1-6)]GalNAc
In short: as §1

[11] = molecular target: Fuc(a1-2)[GalNAc(a1-3)]Gal(b1-4)GlcNAc(b1-6)GalNAc
In short: as §1

[12] = molecular target: Fuc(a1-2)[GalNAc(a1-3)]Gal(b1-4)[Fuc(a1-3)]GlcNAc
In short: as §1

[13] = molecular target: Fuc(a1-2)[GalNAc(a1-3)]Gal(b1-4)[Fuc(a1-3)]GlcNAc(b1-3)GalNAc
In short: as §1

[14] = molecular target: Fuc(a1-2)[GalNAc(a1-4)]Gal(b1-4)GlcNAc
In short: as §1

[15] = molecular target: Fuc(a1-2)[GalNAc(b1-3)]Gal
In short: as §1

Fuc(a1-3)GlcNAc = molecular target: Fuc(a1-3)GlcNAc
In short: as §1

[16] = molecular target: Fuc(a1-3)[Gal(b1-4)]Glc6S
In short: as §1

[17] = molecular target: Fuc(a1-3)[Gal(b1-4)]GlcNAc
In short: as §1

[18] = molecular target: Fuc(a1-3)[Gal(b1-4)]GlcNAc(b1-2)Man
In short: as §1

[19] = molecular target: Fuc(a1-3)[Gal(b1-4)]GlcNAc(b1-2)Man(a1-3)[Fuc(a1-3)[Gal(b1-4)]GlcNAc(b1-2)Man(a1-6)]Man(b1-4)GlcNAc(b1-4)GlcNAc
In short: as §1

[20] = molecular target: Fuc(a1-3)[Gal(b1-4)]GlcNAc(b1-2)Man(a1-3)[Fuc(a1-3)[Gal(b1-4)]GlcNAc(b1-2)Man(a1-6)]Man(b1-4)GlcNAc(b1-4)[Fuc(a1-6)]GlcNAc
In short: as §1

[21] = molecular target: Fuc(a1-3)[Gal(b1-4)]GlcNAc(b1-3)Gal(b1-3)[Fuc(a1-4)]GlcNAc
In short: as §1

[22] = molecular target: Fuc(a1-3)[Gal(b1-4)]GlcNAc(b1-3)Gal(b1-4)[Fuc(a1-3)]GlcNAc
In short: as §1

[23] = molecular target: Fuc(a1-3)[Gal(b1-4)]GlcNAc(b1-3)Gal(b1-4)[Fuc(a1-3)]GlcNAc(b1-3)Gal(b1-4)[Fuc(a1-3)]GlcNAc
In short: as §1

[24] = molecular target: Fuc(a1-3)[Gal(b1-4)]GlcNAc(b1-3)GalNAc
In short: as §1

[25] = molecular target: Fuc(a1-3)[Gal(b1-4)]GlcNAc(b1-6)GalNAc
In short: as §1

[26] = molecular target: Fuc(a1-3)[Gal(b1-4)]GlcNAc(b1-6)[Gal(b1-3)GlcNAc(b1-3)]Gal(b1-4)Glc
In short: as §1

[27] = molecular target: Fuc(a1-3)[Gal(b1-4)]GlcNAc6S
In short: as §1

[28] = molecular target: Fuc(a1-3)[Gal3S(b1-4)]Glc
In short: as §1

[29] = molecular target: Fuc(a1-3)[Gal3S(b1-4)]GlcNAc
In short: as §1

[30] = molecular target: Fuc(a1-3)[Gal3S(b1-4)]GlcNAc6S
In short: as §1

[31] = molecular target: Fuc(a1-3)[GalNAc(b1-4)]GlcNAc
In short: as §1

[32] = molecular target: Fuc(a1-3)[GalNAc(b1-4)]GlcNAc6S
In short: as §1

Fuc(a1-4)GlcNAc = molecular target: Fuc(a1-4)GlcNAc
In short: as §1

Fuc(b1-3)GlcNAc = molecular target: Fuc(b1-3)GlcNAc
In short: as §1

Gal(a1-2)Gal = molecular target: Gal(a1-2)Gal
In short: as §1

Gal(a1-3)Gal = molecular target: Gal(a1-3)Gal
In short: as §1

Gal(a1-3)Gal(b1-3)GlcNAc = molecular target: Gal(a1-3)Gal(b1-3)GlcNAc
In short: as §1

[33] = molecular target: Gal(a1-3)Gal(b1-3)GlcNAc(b1-2)Man
In short: as §1

[34] = molecular target: Gal(a1-3)Gal(b1-3)GlcNAc(b1-2)Man(a1-3)[Gal(a1-3)Gal(b1-3)GlcNAc(b1-2)Man(a1-6)]Man(b1-4)GlcNAc(b1-4)GlcNAc
In short: as §1

[35] = molecular target: Gal(a1-3)Gal(b1-3)GlcNAc(b1-3)GalNAc
In short: as §1

[36] = molecular target: Gal(a1-3)Gal(b1-3)GlcNAc(b1-6)GalNAc
In short: as §1

[37] = molecular target: Gal(a1-3)Gal(b1-3)[Fuc(a1-4)]GlcNAc(b1-2)Man(a1-3)[Gal(a1-3)Gal(b1-3)[Fuc(a1-4)]GlcNAc(b1-2)Man(a1-6)]Man(b1-4)GlcNAc(b1-4)GlcNAc
In short: as §1

Gal(a1-3)Gal(b1-4)Glc = molecular target: Gal(a1-3)Gal(b1-4)Glc
In short: as §1

Gal(a1-3)Gal(b1-4)GlcNAc = molecular target: Gal(a1-3)Gal(b1-4)GlcNAc
In short: as §1

B1: rCnSL-A (Clitocybe nebularis) (protein)
chain: VNPNLPGPNDVFVGFRGTNNIVGAIYEKDGIKDTPLNNGADAEMGPGSYITDGLFTARIFASGSAGNNPGTTATVCKIYASGVQWRGAPKGYIPVAYFGNGPTAEQRRQTYLRTLGLPGTAIRFGNLNTNPGQGPTAPRQMVVPPGPLRSLLKASCFPAADTRLPQTLHYFEKRVDWNIITAADSQTWGH
With B1 as the binder, how does the “glycan array binding signal (z-score)” value [1] read?
The value was -0.306.

And the “glycan array binding signal (z-score)” value [2]?
Its value is -0.218.

And the “glycan array binding signal (z-score)” value [3]?
Its value is -0.252.

What about the “glycan array binding signal (z-score)” value [4] of the same binder?
Its value is -0.326.

What about the “glycan array binding signal (z-score)” value [5] of the same binder?
The value was -0.319.

What about the “glycan array binding signal (z-score)” value [6] of the same binder?
The value was 0.016.

And the “glycan array binding signal (z-score)” value [7]?
The value was -0.3.

And the “glycan array binding signal (z-score)” value [8]?
The value was -0.002.

And the “glycan array binding signal (z-score)” value [9]?
The value was -0.227.

What about the “glycan array binding signal (z-score)” value [10] of the same binder?
The value was -0.21.

What about the “glycan array binding signal (z-score)” value [11] of the same binder?
Its value is -0.283.

And the “glycan array binding signal (z-score)” value [12]?
Its value is -0.163.

What about the “glycan array binding signal (z-score)” value [13] of the same binder?
Its value is -0.031.

And the “glycan array binding signal (z-score)” value [14]?
The value was -0.456.

What about the “glycan array binding signal (z-score)” value [15] of the same binder?
The value was -0.31.

What about the “glycan array binding signal (z-score)” value (Fuc(a1-3)GlcNAc) of the same binder?
Its value is -0.258.

What about the “glycan array binding signal (z-score)” value [16] of the same binder?
Its value is -0.019.

What about the “glycan array binding signal (z-score)” value [17] of the same binder?
Its value is -0.312.

And the “glycan array binding signal (z-score)” value [18]?
The value was -0.213.

And the “glycan array binding signal (z-score)” value [19]?
Its value is -0.253.

What about the “glycan array binding signal (z-score)” value [20] of the same binder?
The value was -0.184.

And the “glycan array binding signal (z-score)” value [21]?
Its value is -0.109.

And the “glycan array binding signal (z-score)” value [22]?
Its value is -0.069.

And the “glycan array binding signal (z-score)” value [23]?
Its value is 0.066.

What about the “glycan array binding signal (z-score)” value [24] of the same binder?
The value was -0.232.

What about the “glycan array binding signal (z-score)” value [25] of the same binder?
Its value is -0.093.

What about the “glycan array binding signal (z-score)” value [26] of the same binder?
Its value is -0.004.

What about the “glycan array binding signal (z-score)” value [27] of the same binder?
Its value is -0.193.

And the “glycan array binding signal (z-score)” value [28]?
Its value is -0.148.

What about the “glycan array binding signal (z-score)” value [29] of the same binder?
Its value is -0.216.

And the “glycan array binding signal (z-score)” value [30]?
Its value is -0.253.

What about the “glycan array binding signal (z-score)” value [31] of the same binder?
The value was -0.143.

And the “glycan array binding signal (z-score)” value [32]?
The value was -0.255.

And the “glycan array binding signal (z-score)” value (Fuc(a1-4)GlcNAc)?
Its value is -0.178.

What about the “glycan array binding signal (z-score)” value (Fuc(b1-3)GlcNAc) of the same binder?
The value was -0.225.

What about the “glycan array binding signal (z-score)” value (Gal(a1-2)Gal) of the same binder?
The value was -0.273.

And the “glycan array binding signal (z-score)” value (Gal(a1-3)Gal)?
Its value is -0.219.

What about the “glycan array binding signal (z-score)” value (Gal(a1-3)Gal(b1-3)GlcNAc) of the same binder?
Its value is -0.216.

And the “glycan array binding signal (z-score)” value [33]?
The value was -0.158.

And the “glycan array binding signal (z-score)” value [34]?
Its value is 0.038.

And the “glycan array binding signal (z-score)” value [35]?
Its value is -0.204.

What about the “glycan array binding signal (z-score)” value [36] of the same binder?
Its value is -0.247.

And the “glycan array binding signal (z-score)” value [37]?
Its value is -0.251.

And the “glycan array binding signal (z-score)” value (Gal(a1-3)Gal(b1-4)Glc)?
The value was -0.211.

And the “glycan array binding signal (z-score)” value (Gal(a1-3)Gal(b1-4)GlcNAc)?
Its value is -0.243.
